These results are taken from patent US10962541B2 (priority 2014, dated 2021).

Molecules are shown by their SMILES.

The target of test [1] is T1, Cdc42 (Homo sapiens, UniProt P60953).
T1 construct: endogenous in cells; host or cells: HeLa (ATCC)
Put plainly: G-trap assay validation, active Cdc42 in HeLa cells. Format: cell-based. To be noted: HeLa cells treated with CID2950007 (ML141). As for the experimental part: For each effector assay, 10,000 beads were added to 50 μg of protein in 100 μl of cell lysate in RIPA buffer. […] To minimize reporter antibody crosstalk, samples were split into separate fractions after lysate binding to the multiplex bead sets and then individually probed with a reporter antibody specific for a single target GTPase per fraction.
Cdc42, Rac1 and RhoA are among the most well characterized members of the Rho subfamily of GTPases. They are known for orchestrating cytoskeletal reorganization dynamics (filamentous actin and myosin 2) and crosstalk to antagonize each other's activities [25B; 26B; 27B; 28B]. The availability of specific regulators of their activity makes these GTPases a suitable platform to test the applicability of our G-trap assay. HeLa cells were treated with the following signaling regulators: 1) NSC23766, a specific inhibitor of Rac1 interaction with its two upstream GEFs Tiam1 and Trio (Trio is also identified as a RhoA target [29B: 30B]), 2) CID2950007, a novel Cdc42 specific inhibitor [6B] commercially sold as ML141, and 3) calpeptin, an upstream activator of RhoA [31B]. […] Readings were taken at 3 min and 20 min after stimulation. The data were corrected for nonspecific binding by subtracting the fluorescent antibody binding to the GST-conjugated control beads from the antibody binding to GST-effector bearing beads. […]

Test [2] relates to Rap1. It is filed as cell-based, monkey.
Test [3] relates to RhoA. It is filed as cell-based, monkey.
Test [4] deals with Vero E6 cells.

T1 sequence (P60953 whole entry): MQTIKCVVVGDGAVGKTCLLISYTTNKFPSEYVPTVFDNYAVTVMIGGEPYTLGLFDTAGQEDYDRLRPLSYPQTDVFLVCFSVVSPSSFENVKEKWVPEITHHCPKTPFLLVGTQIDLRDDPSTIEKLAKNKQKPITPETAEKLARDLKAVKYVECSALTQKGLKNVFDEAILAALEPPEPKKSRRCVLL

Turning to `COc1ccc(C2CC(c3ccccc3)=NN2c2ccc(S(N)(=O)=O)cc2)cc1` (stereo not shown) [CID2950007], in test [1], the Cdc42 activity entry is “total inhibition of Cdc42”.

Turning to `CC1CNc2c(cccc2S(=O)(=O)N[C@@H](CCCNC(=N)N)C(=O)N2CC[C@@H](C)C[C@@H]2C(=O)O)C1` (stereo partly shown) [argatroban], in test [2], the “Rap1 activation in argatroban-treated plasma samples” value is reported as “refractory”. For the same molecule, the “RhoA GTP activation in argatroban-treated plasma samples” value in test [3] was “RhoA GTP activation was primarily due to thrombin”.

Take `CCCC[C@@H](C=O)NC(=O)[C@H](CC(C)C)NC(=O)OCc1ccccc1` [calpeptin]: the “actin stress fiber formation” value in test [4] is on record as “RhoA induced F-actin stress fibers formed”.
